Reference: the supplement of paper PMC4604168 (melanoma cell lines)
The other results are listed elsewhere or left out. Most values come without repeats; read them as rough.

system: COLO800; assay: cell count relative to DMSO control; melanoma cells; higher = more viable cells; settings: library dose: low library concentration; 72 h
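Further: cell number obtained by counting DAPI-stained nuclei in high-throughput microscope images with image analysis software, screen run in 1,536-well plates.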

Row | Compound | cell count
1 | C[C@]12O[C@H](C[C@]1(O)CO)n1c3ccccc3c3c4c(c5c6ccccc6n2c5c31)CNC4=O [Lestaurtinib] + COCC[n+]1c2c(n(Cc3cnccn3)c1C)C(=O)c1ccccc1C2=O [YM155] (first compound 0.004 µM, partner dose 0.0004 µM) | 87.3%
2 | C[As](C)SC[C@H](NC(=O)CC[C@H](N)C(=O)O)C(=O)NCC(=O)O [Darinaparsin] + COC(=O)c1sccc1S(=O)(=O)Nc1ccc(Nc2ccccc2)cc1OC [GSK0660] (first compound 0.4 µM, partner dose 1 µM) | 82.4%
3 | C[C@]12O[C@H](C[C@]1(O)CO)n1c3ccccc3c3c4c(c5c6ccccc6n2c5c31)CNC4=O [Lestaurtinib] + C[C@]1(c2nc3c(C(N)=O)cccc3[nH]2)CCCN1 [Veliparib] (first compound 0.004 µM, partner dose 1.4 µM) | 69.4%
4 | C[As](C)SC[C@H](NC(=O)CC[C@H](N)C(=O)O)C(=O)NCC(=O)O [Darinaparsin] + O=C(Oc1ccc([N+](=O)[O-])cc1)N1CCC(C(O)(c2ccc3c(c2)OCO3)c2ccc3c(c2)OCO3)CC1 [JZL184] (first compound 0.4 µM, partner dose 1 µM) | 88.4%
